# Measurements as given in the supplement of paper PMC11348887.
# Structures can show the parent of a compound that is named as a salt. This is one part of the list. Cut-off read from the data, not from the text of the source: active = -2 or less and inactive = the rest. Many values rest on one well or one pass, so single values are uncertain.
# Test system: hPSC-derived cortical neurons (WA09)
# Experiment: nuclei number (viability) z-score; higher = more surviving cells
# Conditions: 5 µM; treatment: days 7-14 after plating, readout day 21
# 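Note: nuclei counted from DAPI counterstain by automated high-content image analysis, four fields per well at ×20 in 384-well plates, with sequential b-score then z-score normalization.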
row,Compound,nuclei number (z-score)
1,Cc1cc(N2CCOCC2)ccc1Nc1nc(NC2CCCCC2)c2[nH]cnc2n1,inactive: -0.16
2,C[C@H](NC(=O)Cc1cc(F)cc(F)c1)C(=O)N[C@@H]1C(=O)N(C)c2ccccc2-c2ccccc21,inactive: 0.315
3,O=C(O)c1ccc(Nc2ncc3c(n2)-c2ccc(Cl)cc2C(c2c(F)cccc2F)=NC3)cc1,inactive: 1.78
4,OCc1ccc(-c2ccc(-c3ccc(CO)s3)o2)s1,inactive: 0.175
5,O=c1c(-c2ccc(O)cc2)coc2cc(O)cc(O)c12 [Genistein],inactive: -0.0117
6,C=CCc1ccc(O)c(-c2ccc(O)c(CC=C)c2)c1 [Honokiol],inactive: 0.443
7,CNC(=C[N+](=O)[O-])NCCSCc1ccc(CN(C)C)o1 [Ranitidine],inactive: -0.499
8,COC(=O)[C@H]1[C@H]2C[C@@H]3c4[nH]c5cc(OC)ccc5c4CCN3C[C@H]2C[C@@H](OC(=O)c2cc(OC)c(OC)c(OC)c2)[C@@H]1OC [Reserpine],active: -3.01
9,COc1cc2c(cc1OC)-c1cc3ccc(OC)c(OC)c3c[n+]1CC2 [Palmatine chloride],active: -4.08
10,Cc1cn([C@@H]2C[C@@H](O)[C@H](CO)O2)c(=O)[nH]c1=O [Telbivudine],inactive: 0.323
11,NC(=O)c1ncn([C@@H]2O[C@H](CO)[C@@H](O)[C@H]2O)c1O [Mizoribine],inactive: 0.222
12,O=C(N/N=C/c1ccc([N+](=O)[O-])o1)c1ccc(O)cc1 [Nifuroxazide],inactive: 2.5
13,Cc1cc(NC(=O)c2cccc(NC(=O)/C=C/CN(C)C)c2)ccc1Nc1nccc(-c2cccnc2)n1,inactive: -1.2
14,CCOc1cc2ncc(C#N)c(Nc3ccc(OCc4ccccn4)c(Cl)c3)c2cc1NC(=O)/C=C/CN(C)C [Neratinib (HKI-272)],active: -6.96
15,Cc1cccc(Nc2cc(Cl)nc(SCC(=O)O)n2)c1C,inactive: 0.474
16,Cn1cc(C2=C(c3ccc(Cl)cc3Cl)C(=O)NC2=O)c2ccccc21,inactive: 1.39
17,OCc1ccc(O[C@@H]2O[C@H](CO)[C@@H](O)[C@H](O)[C@H]2O)cc1 [Gastrodin],inactive: -0.48
18,O=C(NC(NC(=S)Nc1ccc(F)c([N+](=O)[O-])c1)C(Cl)(Cl)Cl)C(c1ccccc1)c1ccccc1 (stereo not drawn),inactive: 2.57
19,CCc1cc(C(N)=S)ccn1 [Ethionamide],inactive: 0.0544
20,CCc1c2c(nc3ccc(OC(=O)N4CCC(N5CCCCC5)CC4)cc13)-c1cc3c(c(=O)n1C2)COC(=O)[C@]3(O)CC [Irinotecan],inactive: 1.09
21,CCc1c2c(nc3ccc(OC(=O)N4CCC(N5CCCCC5)CC4)cc13)-c1cc3c(c(=O)n1C2)COC(=O)[C@]3(O)CC [Irinotecan HCl Trihydrate],inactive: -0.227

row,Compound,nuclei number (z-score)
1,COC(=O)c1ccc2c(c1)[nH]c1ncnc(NCCCN3CCCCC3)c12,inactive: 0.857
2,C[C@H]1[C@H](NC(=O)/C(=N\OC(C)(C)C(=O)O)c2csc(N)n2)C(=O)N1S(=O)(=O)O [Aztreonam],inactive: -1.03
3,OC[C@H]1O[C@@H](OCCc2ccc(O)cc2)[C@H](O)[C@@H](O)[C@@H]1O [Salidroside],inactive: 0.289
4,CCC[C@H](NC(=O)/C(C#N)=C/c1cccc(Br)n1)c1ccccc1 [Degrasyn (WP1130)],inactive: 1.12
5,CCOC(=O)NCCCC(=O)NCCc1ccccc1,inactive: -0.329
6,CC(C)(O/N=C(\C(=O)N[C@@H]1C(=O)N2C(C(=O)[O-])=C(C[n+]3ccccc3)CS[C@H]12)c1csc(N)n1)C(=O)O [Ceftazidime Pentahydrate],inactive: -0.494
7,C=C1/C(=C\C=C2/CCC[C@]3(C)[C@@H]([C@H](C)CCCC(C)(C)O)CC[C@@H]23)C[C@@H](O)C[C@@H]1O [Calcitriol],inactive: 0.184
8,C[C@]12C=CC(=O)C=C1CC[C@@H]1[C@@H]2C(=O)C[C@@]2(C)[C@H]1CC[C@]2(O)C(=O)CO [Prednisone],inactive: 3.81
9,COC(=O)CC[C@H](NC(=O)[C@H](CC(=O)OC)NC(=O)OCc1ccccc1)C(=O)N[C@H](C(=O)N[C@@H](CC(=O)OC)C(=O)CF)C(C)C,inactive: 0.0469
10,c1ccc2c(Oc3nc(Nc4ccc(N5CCOCC5)cc4)c4ncn(C5CCCCC5)c4n3)cccc2c1 [Purmorphamine],inactive: 2.73
11,CCOC(=O)CCC(=O)O[C@H]1[C@H](O[C@@H]2[C@@H](C)[C@H](O[C@H]3C[C@@](C)(OC)[C@@H](O)[C@H](C)O3)[C@@H](C)C(=O)O[C@H](CC)[C@@](C)(O)[C@H](O)[C@@H](C)C(=O)[C@H](C)C[C@@]2(C)O)O[C@H](C)C[C@@H]1N(C)C [Erythromycin Ethylsuccinate],inactive: 0.478
12,COc1cc(NC(=O)c2ccc(-c3ccc(Cl)cc3)o2)cc(OC)c1,inactive: 0.0055
13,CC1(C)[C@@H](O[C@H]2O[C@H](C(=O)O)[C@@H](O)[C@H](O)[C@H]2O[C@@H]2O[C@H](C(=O)O)[C@@H](O)[C@H](O)[C@H]2O)CC[C@]2(C)[C@H]3C(=O)C=C4[C@@H]5C[C@@](C)(C(=O)O)CC[C@]5(C)CC[C@@]4(C)[C@]3(C)CC[C@@H]12 [Ammonium Glycyrrhizinate],inactive: -0.454
14,CC1(C)[C@@H](O[C@H]2O[C@H](C(=O)O)[C@@H](O)[C@H](O)[C@H]2O[C@@H]2O[C@H](C(=O)O)[C@@H](O)[C@H](O)[C@H]2O)CC[C@]2(C)[C@H]3C(=O)C=C4[C@@H]5C[C@@](C)(C(=O)O)CC[C@]5(C)CC[C@@]4(C)[C@]3(C)CC[C@@H]12 [Glycyrrhizin (Glycyrrhizic Acid)],inactive: -0.204
15,CCC1=C[C@@H]2CN(C1)Cc1c([nH]c3ccccc13)[C@@](C(=O)OC)(c1cc3c(cc1OC)N(C)[C@H]1[C@@](O)(C(=O)OC)[C@H](OC(C)=O)[C@]4(CC)C=CCN5CC[C@]31[C@@H]54)C2 [Vinorelbine Tartrate],active: -5.26
16,CC(C)CN(C[C@@H](O)[C@H](Cc1ccccc1)NC(=O)O[C@H]1CCOC1)S(=O)(=O)c1ccc(N)cc1 [Amprenavir],inactive: 0.899
17,CNC(=C[N+](=O)[O-])NCCSCc1csc(CN(C)C)n1 [Nizatidine],inactive: -0.235
18,OCc1ccccc1 [Benzyl alcohol],inactive: 0.671
19,CCn1cc(C(=O)O)c(=O)c2cc(F)c(N3CCNC(C)C3)c(F)c21 (stereo not drawn) [Lomefloxacin HCl],inactive: -0.555
20,CS(=O)(=O)Nc1ccc([N+](=O)[O-])cc1Oc1ccccc1 [Nimesulide],inactive: 0.296
21,CCOC(=O)c1ccc(N2NC(=O)C(=Cc3ccc([N+](=O)[O-])o3)C2=O)cc1,inactive: -0.702

row,Compound,nuclei number (z-score)
1,N#CN=C(NCCCCCCOc1ccc(Cl)cc1)Nc1ccncc1,active: -7.04
2,CCn1cc(C(=O)O)c(=O)c2cc(F)c(N3CCN(C)CC3)cc21 [Pefloxacin Mesylate Dihydrate],inactive: 0.485
3,CCn1cc(C(=O)O)c(=O)c2cc(F)c(N3CCN(C)CC3)cc21 [Pefloxacin Mesylate],inactive: -0.231
4,CCNC(=O)c1noc(-c2cc(Cl)c(O)cc2O)c1-c1ccc(OC)cc1,active: -5.29
5,C[C@@H]1O[C@@H]1P(=O)(O)O [Fosfomycin Tromethamine],inactive: 0.761
6,C[C@@H]1CN(c2c(F)c(N)c3c(=O)c(C(=O)O)cn(C4CC4)c3c2F)C[C@H](C)N1 [Sparfloxacin],inactive: -0.669
7,C[C@@H]1C(=O)O[C@H]2C[C@@]34[C@H]5C[C@@H](C(C)(C)C)[C@]36[C@@H](OC(=O)[C@@H]6O)O[C@@]4(C(=O)O5)[C@]21O [Ginkgolide A],inactive: -0.249
8,CC1=C(C(=O)OC2CCCCC2)C(c2ccc([N+](=O)[O-])cc2)C2=C(CC(C)(C)CC2=O)N1 (stereo not drawn),inactive: -0.54
9,O=C(O)C(Cc1ccccc1[N+](=O)[O-])=NNc1nc(-c2ccc(Cl)c(Cl)c2)cs1 (mixture of isomers),inactive: -0.0628
10,CC(c1cc2ccccc2s1)N(O)C(N)=O (stereo not drawn) [Zileuton],inactive: 0.396
11,NC(=O)c1ncn([C@@H]2O[C@H](CO)[C@@H](O)[C@H]2O)c1N [Acadesine],inactive: 0.783
12,CNNCc1ccc(C(=O)NC(C)C)cc1 [Procarbazine HCl],inactive: -0.0869
13,O=c1[nH]c(=O)n([C@H]2C[C@H](O)[C@@H](CO)O2)cc1F [Floxuridine],inactive: 0.243
14,C/C(=N\NC(=S)N1CCC1)c1ccccn1,active: -4.73
15,CN(C)CCc1c[nH]c2ccc(C[C@H]3COC(=O)N3)cc12 [Zolmitriptan],inactive: -0.275
16,CN(C)CCC=C1c2ccccc2C=Cc2ccccc21 [Cyclobenzaprine HCl],inactive: 0.17
17,O=C1c2cccc(O)c2C(=O)c2c(O)cc(CO)cc21 [Aloe-emodin],inactive: 0.429
18,COc1cc(/C=C/C(=O)O)ccc1O [Ferulic Acid],inactive: -0.0488
19,C[N+]1(C)CCC(=C(c2ccccc2)c2ccccc2)CC1 [Diphemanil Methylsulfate],inactive: -0.00202
20,NS(=O)(=O)c1cc2c(cc1Cl)NCNS2(=O)=O [Hydrochlorothiazide],inactive: 1.71
21,O=C(NC1CCOCC1)c1ccc(-c2cc(-c3c[nH]nc3-c3ccccn3)ccn2)cc1,inactive: 16
